Laboratory results taken from the supplement of paper PMC10441789.
The other results are listed elsewhere or left out. Antibody binding of pooled human sera (four to six donors per pool; dilution not stated) to peptides of the Trypanosoma cruzi antigen TSSA on microarrays. Quantile-normalised fluorescence in arbitrary units, mean of duplicate arrays; higher = more binding. No active / inactive call. The uninfected pools are read here as the healthy donors of the same country. The strongest signals lie near the top of the scale (about 60,000).

Key:
Assay in all cases: antibody binding signal (normalised fluorescence) (arbitrary fluorescence units); higher = stronger serum antibody binding to peptide
[1] = test system: pooled sera of chronic Chagas disease patients, Bolivia
Description: (§1)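 Microarray of 15-residue peptides over residues 30-55 of Trypanosoma cruzi TSSAII, each with 1 to 10 substitutions at naturally variable positions, probed with one serum pool per country.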

[2] = test system: pooled sera of chronic Chagas disease patients, Brazil
Description: as §1

[3] = test system: pooled sera of chronic Chagas disease patients, Colombia
Description: as §1

[4] = test system: pooled sera of chronic Chagas disease patients, Mexico
Description: as §1

[5] = test system: pooled sera of chronic Chagas disease patients, USA
Description: as §1

[6] = test system: pooled sera of uninfected people, Argentina
Description: as §1

[7] = test system: pooled sera of uninfected people, Bolivia
Description: as §1

[8] = test system: pooled sera of uninfected people, Brazil
Description: as §1

[9] = test system: pooled sera of uninfected people, Colombia
Description: as §1

[10] = test system: pooled sera of uninfected people, Mexico
Description: as §1

[11] = test system: pooled sera of uninfected people, USA
Description: as §1

| Sequence | antibody binding signal [1] | antibody binding signal [2] | antibody binding signal [3] | antibody binding signal [4] | antibody binding signal [5] | antibody binding signal [6] | antibody binding signal [7] | antibody binding signal [8] | antibody binding signal [9] | antibody binding signal [10] | antibody binding signal [11] |
| --- | --- | --- | --- | --- | --- | --- | --- | --- | --- | --- | --- |
| NKPATGGTPSPSGAS | 1150 | 5190 | 330 | 687 | 330 | 647 | 1450 | 737 | 586 | 259 | 1340 |
| KDNKAATGETPSPPG | 1930 | 18400 | 257 | 211 | 9920 | 307 | 478 | 242 | 242 | 160 | 1910 |
| TENKPAAGGTPSQSG | 830 | 2020 | 1270 | 904 | 327 | 297 | 797 | 1110 | 401 | 378 | 245 |
| KKTAAGGTPSPPGAS | 297 | 238 | 3880 | 331 | 1610 | 201 | 132 | 364 | 315 | 78.6 | 292 |
| SSTPPSGTDNKPAAG | 50400 | 52900 | 7100 | 30100 | 35400 | 1520 | 744 | 616 | 396 | 1620 | 466 |
| GKDKKTAAGGAPSPS | 238 | 192 | 3100 | 457 | 367 | 147 | 112 | 128 | 148 | 95.7 | 129 |
| GKEKKTAAGGTPSPP | 248 | 414 | 4270 | 2620 | 2940 | 109 | 92.3 | 296 | 147 | 131 | 86.2 |
| TPPSGKDNKAATGET | 2740 | 2710 | 291 | 25800 | 4120 | 207 | 700 | 194 | 331 | 122 | 106 |
| GKDNKTAAGGTPSQP | 338 | 715 | 4710 | 2520 | 2570 | 304 | 103 | 233 | 174 | 484 | 146 |
| KDKKAAAGETPSPSG | 191 | 534 | 227 | 165 | 753 | 122 | 87.7 | 92.5 | 98.2 | 90 | 305 |
| SGKENKPAAGGTPSQ | 634 | 17800 | 5880 | 5670 | 17100 | 10400 | 3250 | 381 | 232 | 426 | 181 |
| KDKKAAAGGTPSQSG | 224 | 160 | 1600 | 1550 | 1030 | 146 | 67.7 | 1180 | 118 | 83.7 | 90.1 |
| DKKTATGGTPSPSGA | 470 | 510 | 4070 | 515 | 1640 | 302 | 113 | 309 | 676 | 214 | 153 |
| STPPSGTDNKPATGE | 41200 | 46800 | 4100 | 8800 | 40800 | 1740 | 889 | 398 | 311 | 544 | 347 |
| PSGKDKKPATGGAPS | 580 | 2470 | 4690 | 4160 | 4140 | 253 | 472 | 86.9 | 99.8 | 77 | 110 |
| DNKPATGGTPSPSGA | 1310 | 1220 | 264 | 401 | 448 | 353 | 510 | 735 | 496 | 286 | 159 |
| GTDNKAAAGEAPSQP | 27400 | 40600 | 229 | 212 | 13900 | 118 | 720 | 1530 | 86.2 | 110 | 107 |
| GTDNKAATGGAPSPP | 429 | 31600 | 675 | 669 | 1620 | 303 | 454 | 1610 | 270 | 228 | 111 |
| PPSGTDNKPAAGETP | 40800 | 45700 | 3010 | 2470 | 16400 | 965 | 679 | 422 | 508 | 864 | 315 |
| PSGKENKAAAGEAPS | 3400 | 14600 | 13500 | 11700 | 13400 | 6710 | 2890 | 197 | 637 | 312 | 190 |
| GKENKAATGEAPSPP | 26500 | 36400 | 13700 | 14500 | 28800 | 370 | 150 | 135 | 161 | 196 | 129 |
| GKENKPATGGAPSQS | 1200 | 16100 | 7700 | 8300 | 19000 | 773 | 685 | 136 | 125 | 140 | 146 |
| TEKKAAAGEAPSPPG | 263 | 5770 | 487 | 583 | 12300 | 142 | 149 | 226 | 114 | 205 | 153 |
| PPSGKENKAATGEAP | 32300 | 28200 | 956 | 1820 | 28600 | 2840 | 1930 | 309 | 1300 | 249 | 349 |
| GKDKKAAAGGAPSPP | 195 | 158 | 1670 | 435 | 567 | 122 | 80.5 | 102 | 102 | 93 | 81.9 |
| KDKKAATGETPSPSG | 217 | 3250 | 134 | 158 | 6820 | 335 | 95.2 | 79.2 | 192 | 86.5 | 811 |
| GKDNKTAAGGAPSQP | 194 | 583 | 2810 | 585 | 571 | 145 | 100 | 110 | 191 | 100 | 95.6 |

| Sequence | antibody binding signal [1] | antibody binding signal [2] | antibody binding signal [3] | antibody binding signal [4] | antibody binding signal [5] | antibody binding signal [6] | antibody binding signal [7] | antibody binding signal [8] | antibody binding signal [9] | antibody binding signal [10] | antibody binding signal [11] |
| --- | --- | --- | --- | --- | --- | --- | --- | --- | --- | --- | --- |
| GTEKKPAAGETPSPS | 263 | 1780 | 1340 | 1400 | 2770 | 115 | 1060 | 1390 | 197 | 564 | 2310 |
| SGTDKKAATGGAPSQ | 396 | 3560 | 5750 | 1820 | 1460 | 358 | 564 | 202 | 722 | 634 | 207 |
| GTDNKPAAGEAPSQS | 21200 | 44200 | 1230 | 235 | 18000 | 110 | 699 | 321 | 106 | 376 | 93.7 |
| TENKAATGGAPSQPG | 1700 | 25500 | 570 | 606 | 3370 | 279 | 149 | 293 | 191 | 182 | 168 |
| TENKPATGGAPSPPG | 16600 | 5980 | 349 | 913 | 3530 | 354 | 1020 | 382 | 128 | 211 | 213 |
| GTDKKTATGGAPSPP | 723 | 691 | 4100 | 1420 | 1310 | 319 | 267 | 106 | 121 | 299 | 123 |
| GTDKKPAAGEAPSPS | 1010 | 12700 | 8160 | 585 | 15500 | 150 | 292 | 126 | 138 | 632 | 126 |
| GKENKAATGGTPSPS | 564 | 9490 | 6240 | 6750 | 15500 | 370 | 94.8 | 136 | 142 | 89.7 | 125 |
| NKAATGGAPSQSGAS | 377 | 4190 | 518 | 652 | 666 | 865 | 913 | 240 | 296 | 470 | 1150 |
| KKAATGGAPSQPGAS | 276 | 1680 | 427 | 409 | 350 | 364 | 163 | 97.2 | 238 | 79.1 | 348 |
| GTDKKTATGEAPSQP | 21800 | 38200 | 1210 | 803 | 19700 | 221 | 162 | 272 | 97 | 232 | 109 |
| GKDKKPATGETPSQP | 3260 | 32400 | 1630 | 2270 | 19600 | 205 | 174 | 136 | 133 | 567 | 106 |
| KDKKPAAGETPSQSG | 194 | 1480 | 176 | 146 | 353 | 97.2 | 88.4 | 108 | 149 | 73.5 | 73.3 |
| GTDKKPAAGETPSQS | 1480 | 11200 | 6880 | 565 | 1500 | 111 | 331 | 479 | 683 | 882 | 156 |
| GTDKKPATGETPSQS | 27000 | 34600 | 7490 | 550 | 22700 | 240 | 444 | 245 | 262 | 2050 | 186 |
| SGTENKAAAGGAPSP | 6930 | 11200 | 3870 | 703 | 2910 | 316 | 433 | 169 | 333 | 159 | 223 |
| PSGTDKKTATGETPS | 1360 | 5450 | 1540 | 719 | 6960 | 218 | 549 | 182 | 193 | 329 | 245 |
| GKDKKTAAGGAPSQP | 345 | 435 | 2710 | 432 | 374 | 140 | 108 | 125 | 138 | 128 | 137 |
| STPPSGTEKKPATGG | 7180 | 42400 | 2650 | 26100 | 12400 | 1830 | 1640 | 528 | 234 | 368 | 1840 |
| DKKAAAGEAPSPSGA | 207 | 3510 | 413 | 374 | 10700 | 246 | 115 | 113 | 81.6 | 82.4 | 130 |
| TISTPPSGTENKAAT | 50100 | 52400 | 339 | 3250 | 25300 | 3050 | 593 | 426 | 712 | 455 | 663 |
| KKPAAGGAPSPPGAS | 194 | 379 | 1450 | 251 | 557 | 321 | 249 | 107 | 124 | 79 | 346 |
| TENKAATGEAPSPSG | 36900 | 32700 | 199 | 209 | 24500 | 141 | 197 | 117 | 113 | 91.8 | 234 |
| STPPSGTDNKTATGG | 48500 | 49200 | 1770 | 30500 | 28700 | 1170 | 748 | 1780 | 265 | 305 | 319 |
| TDKKAATGEAPSQSG | 33500 | 30300 | 202 | 327 | 23900 | 443 | 107 | 161 | 540 | 208 | 201 |
| DNKTAAGEAPSQPGA | 27800 | 40400 | 383 | 340 | 7430 | 144 | 272 | 299 | 234 | 386 | 168 |
